{"source": "the supplement of paper PMC4604168 (melanoma cell lines)", "note": "This is one part of the list. Repeats are few or missing, and single values can be far off.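 Note: cells treated in 1,536-well plates, then fixed and DAPI-stained, with nuclei counted from automated high-throughput microscope images.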", "data": [{"tested_on": "WM3526", "test": "cell count relative to DMSO control; melanoma cells; higher = more viable cells", "settings": "library dose: standard library concentration; 72 h", "units": {"cell count": "%"}, "values": [{"molecule": "CS(=O)(=O)CCNCc1ccc(-c2ccc3ncnc(Nc4ccc(OCc5cccc(F)c5)c(Cl)c4)c3c2)o1", "note": "[lapatinib] + COc1cc2ncnc(Nc3ccc(Oc4ccccc4)cc3)c2cc1OC [SrcI1] (first compound 4 µM, partner dose 10 µM)", "cell count": 61}, {"molecule": "CNC(=O)c1cc(Oc2ccc(NC(=O)Nc3ccc(Cl)c(C(F)(F)F)c3)cc2)ccn1", "note": "[sorafenib] + COc1ccc2c(c1)CCC1C2CCC2(C)C(NCCCCCCN3C(=O)C=CC3=O)CCC12 [U73122] (first compound 2 µM, partner dose 2 µM)", "cell count": 83.9}, {"molecule": "CNC(=O)c1cc(Oc2ccc(NC(=O)Nc3ccc(Cl)c(C(F)(F)F)c3)cc2)ccn1", "note": "[sorafenib] + Cc1cc([N+](=O)[O-])ccc1NS(=O)(=O)c1cc(Cl)ccc1Cl [FH535] (first compound 2 µM, partner dose 5 µM)", "cell count": 50}, {"molecule": "CN1CCN(c2ccc3nc(-c4c(N)c5c(F)cccc5[nH]c4=O)[nH]c3c2)CC1", "note": "[Dovitinib] + CCc1ccc(CCOc2ccc(CC3SC(=O)NC3=O)cc2)nc1 [pioglitazone] (first compound 0.5 µM, partner dose 10 µM)", "cell count": 77.7}, {"molecule": "C=CCNC1=C2C[C@@H](C)C[C@H](OC)[C@H](O)[C@@H](C)/C=C(\\C)[C@H](OC(N)=O)[C@@H](OC)/C=C\\C=C(/C)C(=O)NC(=CC1=O)C2=O", "note": "[Tanespimycin] + N#Cc1c(O)c2c(-c3ccc(-c4ccccc4O)cc3)csc2[nH]c1=O [A769662] (first compound 0.01 µM, partner dose 10 µM)", "cell count": 84.9}, {"molecule": "C[C@@H](Oc1cc(-c2cnn(C3CCNCC3)c2)cnc1N)c1c(Cl)ccc(F)c1Cl", "note": "[Crizotinib] + Oc1nc(-c2ccc(C(F)(F)F)cc2)nc2c1CSCC2 [XAV939] (first compound 1 µM, partner dose 10 µM)", "cell count": 102}, {"molecule": "CS(=O)(=O)CCNCc1ccc(-c2ccc3ncnc(Nc4ccc(OCc5cccc(F)c5)c(Cl)c4)c3c2)o1", "note": "[lapatinib] + O=c1cc(-c2cccc3c2Sc2ccccc2S3)oc(N2CCOCC2)c1 [KU55933] (first compound 4 µM, partner dose 5 µM)", "cell count": 81.4}, {"molecule": "C=CCNC1=C2C[C@@H](C)C[C@H](OC)[C@H](O)[C@@H](C)/C=C(\\C)[C@H](OC(N)=O)[C@@H](OC)/C=C\\C=C(/C)C(=O)NC(=CC1=O)C2=O", "note": "[Tanespimycin] + CCN(CC)CCCCNc1ncc2cc(-c3cc(OC)cc(OC)c3)c(NC(=O)NC(C)(C)C)nc2n1 [PD173074] (first compound 0.01 µM, partner dose 0.5 µM)", "cell count": 86}, {"molecule": "CS(=O)(=O)CCNCc1ccc(-c2ccc3ncnc(Nc4ccc(OCc5cccc(F)c5)c(Cl)c4)c3c2)o1", "note": "[lapatinib] + CCc1ccc(CCOc2ccc(CC3SC(=O)NC3=O)cc2)nc1 [pioglitazone] (first compound 4 µM, partner dose 10 µM)", "cell count": 70.6}, {"molecule": "CN1CCN(c2ccc3nc(-c4c(N)c5c(F)cccc5[nH]c4=O)[nH]c3c2)CC1", "note": "[Dovitinib] + COc1cc(N2CCC(N3CCN(C)CC3)CC2)ccc1Nc1ncc(Cl)c(Nc2ccccc2S(=O)(=O)C(C)C)n1 [NVP-TAE684] (first compound 0.5 µM, partner dose 0.4 µM)", "cell count": 58.3}, {"molecule": "CS(=O)(=O)CCNCc1ccc(-c2ccc3ncnc(Nc4ccc(OCc5cccc(F)c5)c(Cl)c4)c3c2)o1", "note": "[lapatinib] + COc1ccc2c(c1)CCC1C2CCC2(C)C(NCCCCCCN3C(=O)C=CC3=O)CCC12 [U73122] (first compound 4 µM, partner dose 2 µM)", "cell count": 63.4}, {"molecule": "CNC(=O)c1cc(Oc2ccc(NC(=O)Nc3ccc(Cl)c(C(F)(F)F)c3)cc2)ccn1", "note": "[sorafenib] + CCN(CC)CCCCNc1ncc2cc(-c3cc(OC)cc(OC)c3)c(NC(=O)NC(C)(C)C)nc2n1 [PD173074] (first compound 2 µM, partner dose 0.5 µM)", "cell count": 81.3}, {"molecule": "C=CCNC1=C2C[C@@H](C)C[C@H](OC)[C@H](O)[C@@H](C)/C=C(\\C)[C@H](OC(N)=O)[C@@H](OC)/C=C\\C=C(/C)C(=O)NC(=CC1=O)C2=O", "note": "[Tanespimycin] + CCCCCCCCCCCC1=C(O)C(=O)C=C(O)C1=O [Embelin] (first compound 0.01 µM, partner dose 6 µM)", "cell count": 80.9}]}]}
